From publication PMC4336329 (PLoS ONE, 2015)
About 14,000 (4.5%) of roughly 310,000 compounds showed an effect of 50% or more. The effect is printed as a negative number. This is one part of the list.

molecular target: human ether-à-go-go-related gene (hERG) potassium channel (human, UniProt Q12809); assay: primary screen, population patch clamp on CHO cells stably expressing hERG
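Further: peak tail current of the secondary pulse compared with the same well before compound.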

human ether-à-go-go-related gene (hERG) potassium channel, sequence (Q12809 whole entry, looked up): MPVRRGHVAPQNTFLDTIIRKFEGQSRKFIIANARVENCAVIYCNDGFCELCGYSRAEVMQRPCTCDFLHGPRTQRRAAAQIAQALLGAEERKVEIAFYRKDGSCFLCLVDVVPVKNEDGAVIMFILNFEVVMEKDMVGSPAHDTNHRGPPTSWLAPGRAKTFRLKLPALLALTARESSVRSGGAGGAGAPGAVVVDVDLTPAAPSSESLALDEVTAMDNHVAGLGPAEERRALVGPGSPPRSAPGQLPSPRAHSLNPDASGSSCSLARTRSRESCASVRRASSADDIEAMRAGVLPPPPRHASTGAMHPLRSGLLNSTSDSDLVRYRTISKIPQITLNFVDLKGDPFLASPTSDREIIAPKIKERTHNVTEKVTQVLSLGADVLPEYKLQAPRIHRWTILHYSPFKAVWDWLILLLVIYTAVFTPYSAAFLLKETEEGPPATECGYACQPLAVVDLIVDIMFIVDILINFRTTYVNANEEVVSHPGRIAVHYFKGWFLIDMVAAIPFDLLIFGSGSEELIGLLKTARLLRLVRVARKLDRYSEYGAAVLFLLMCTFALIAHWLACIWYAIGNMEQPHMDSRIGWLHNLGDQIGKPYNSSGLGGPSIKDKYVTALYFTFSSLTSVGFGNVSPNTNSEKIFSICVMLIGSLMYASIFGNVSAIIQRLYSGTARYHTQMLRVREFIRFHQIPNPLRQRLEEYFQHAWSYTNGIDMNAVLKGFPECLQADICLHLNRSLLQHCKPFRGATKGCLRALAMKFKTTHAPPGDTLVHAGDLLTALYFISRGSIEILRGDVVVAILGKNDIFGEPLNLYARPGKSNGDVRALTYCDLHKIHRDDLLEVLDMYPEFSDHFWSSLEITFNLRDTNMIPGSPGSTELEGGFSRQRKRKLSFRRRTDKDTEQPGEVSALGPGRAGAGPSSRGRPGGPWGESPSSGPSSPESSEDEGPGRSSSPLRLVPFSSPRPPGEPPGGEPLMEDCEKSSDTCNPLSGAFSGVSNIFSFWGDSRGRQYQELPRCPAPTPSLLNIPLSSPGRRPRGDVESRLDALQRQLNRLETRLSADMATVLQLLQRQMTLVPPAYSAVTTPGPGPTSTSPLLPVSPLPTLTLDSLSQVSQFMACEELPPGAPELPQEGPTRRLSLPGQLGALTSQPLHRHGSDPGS

Compound	hERG current change (%, negative = inhibition) at 10uM
COCCn1c(SCC(=O)N2CCCc3ccccc32)nc2cccnc21	-16.5%
CC(=O)Nc1ccc(OCCOc2ccc(/C=C3/C(=N)N4C=CSC4=NC3=O)cc2)cc1	-4.84%
CCCOc1ccccc1/C=C1\SC(N)=NC1=O	9.65%
O=C(c1cccnc1)N1CCN(S(=O)(=O)c2ccc(S(=O)(=O)N3CCCC3)cc2)CC1	9.65%
O=C(CSCc1ccccc1)Nc1cccc(C(=O)Nc2ccccc2C(=O)O)c1	1.8%
CC(=O)Nc1ccc(CN2CCCC(CCC(=O)NCc3ccccc3F)C2)cc1 (centres unmarked)	-8.19%
CCCCn1c(N)c(N(CC(C)C)C(=O)c2cnccn2)c(=O)[nH]c1=O	9.45%
O=C(NCCc1ccc(Cl)cc1)Nc1ccc(Cl)cc1	15.9%
CCOP(=O)(OCC)C(C#N)=C1SCN(c2ccccc2)CS1	13.2%
O=C(Nc1nc2c(Cl)c(Cl)ccc2s1)C1CC1	3.25%
CCCN(CCC)S(=O)(=O)c1ccc(C(=O)OCCN2C(=O)c3cccc4c(N5CCOCC5)ccc(c34)C2=O)cc1	0.513%
Nc1ccc(C(=O)OCC(=O)Nc2ccc3c(c2)OCO3)cc1[N+](=O)[O-]	5.04%
CCN(CC)CC(=O)c1ccc(-c2ccccc2)cc1	-20.7%
COC(=O)c1ccc(Cn2c(CN3CCOCC3)nc3ccccc3c2=O)o1	-5.56%
COc1ccccc1Cn1nnc2c(=O)[nH]c(C3CCN(C(=O)c4ccc(F)cc4)CC3)nc21	-8.46%
Cc1ccc2nc(NC(=O)C3CC3C)sc2c1 (centres unmarked)	6.91%
Cn1nc(C(F)(F)F)c(C(=O)Nc2cccc(Cl)c2)c1Cl	-5.35%
CC1CCN(CC(=O)Nc2ccc(S(=O)(=O)N3C(C)CCCC3C)cc2)CC1 (centres unmarked)	3.93%
COCCn1c(SCC(=O)NC(=O)Cc2ccccc2)nc2ccccc2c1=O	-14.2%

Compound	hERG current change (%, negative = inhibition) at 10uM
O=C1/C(=N/n2cnnc2)c2ccccc2N1Cc1ccccc1	-12.3%
O=C(NCc1ccc2c(c1)OCO2)C1(S(=O)(=O)c2ccccc2)CC1	13.4%
C=CCn1c(SCCOc2ccc(OC)cc2)nnc1C(NC(=O)c1ccc(OC)cc1)C(C)C (centres unmarked)	-8.7%
Cc1ccc(S(=O)(=O)N2CCCN(c3nc4cc(C)ccc4cc3C#N)CC2)cc1	3.44%
O=C(NCc1ccco1)C1CC2CCC1C2 (centres unmarked)	-5.56%
COc1ccc(C(=O)Nc2ccc(S(=O)(=O)N3CCOCC3)cc2)cc1[N+](=O)[O-]	9.11%
COCCCNC(=O)/C=C/c1c(Cl)cccc1Cl	5.88%
Clc1ccc(CNc2nc(N3CCOCC3)nc(N3CCOCC3)n2)cc1	-20%
COc1ccc(C(=O)NCC(=O)N2CCC(C)CC2)cc1OC	8.89%
COc1ccc(O)c(C(=O)c2cnn(C(=O)c3ccc(C)cc3)c2)c1	1.18%
COc1ccccc1N(CC(=O)N1CCN(c2ccccc2)CC1)S(=O)(=O)c1ccc(C)cc1	17.5%
CCOC(=O)C1C2c3ccccc3O[C@@]1(C)N=C1SCC(=O)N12 (some centres unmarked)	3.9%
COc1ccc(C(=O)C[n+]2cc(-c3ccc(OC)cc3)n3c2CCCC3)cc1.[Br-]	-10.1%
CCCCCC(=O)N1CCN(CCN=CC2=C(O)CC(c3cccs3)CC2=O)CC1 (centres unmarked)	-106%
CCOC(=O)c1c(NC(=O)Nc2ccc(C)cc2)sc2c1CCN(C)C2	-47.6%
COc1cccc(NC(=O)CN(C)C(=O)c2cccc(NS(=O)(=O)c3ccccc3)c2)c1	-8.55%
COc1cccc(NC(=S)/C(=C(\[O-])c2ccc([N+](=O)[O-])cc2)[n+]2ccccc2)c1	1.65%
CC(=O)Nc1nc(C)nc(-c2ccccc2OC(C)=O)n1	-9%
CCCCNc1nc2cccnc2s1	14.8%

Compound	hERG current change (%, negative = inhibition) at 10uM
CC(=O)c1sc(N/N=C\c2ccc(Br)cc2)nc1C	4.97%
O=S(=O)(Cc1noc(-c2ccccc2Cl)n1)c1ccccn1	-7.24%
Cc1ccc(Cl)cc1NC(=S)N(CCN(C)C)C(C)c1ccccn1 (centres unmarked)	-29.6%
CCOC(=O)C1CCCN(C2CC(=O)N(c3ccc(C(C)C)cc3)C2=O)C1 (centres unmarked)	-10%
COc1ccc(NC(=O)c2ccccc2C(=O)N2CCCCC2)cc1	25.9%
O=C(Cn1c(=O)sc2ccccc21)N1CCOCC1	8.47%
CC(C)=NNc1nc2sc3c(c2c(=O)[nH]1)CC(C)(C)OC3	-13%
COC(=O)NCC12CC3CC(C1)CC(CNC(=O)OC)(C3)C2	5%
CC(=O)/C(=N\Nc1cccc(Cl)c1)Sc1cccc2cccnc12	-14.5%
CCC(=O)NC(c1cc(Cl)c2cccnc2c1O)C(C)C (centres unmarked)	-1.09%
O=C(CN1C(=O)/C(=C\c2ccc(F)cc2)Oc2ccccc21)NCc1ccco1	12.4%
O=C(O)COc1ccc(/C=N/n2c(COc3ccccc3)nc3ccccc3c2=O)cc1	8.57%
Cc1cc(C)n2nc(C(=O)NC(C)(C)C)nc2n1	8.81%
C=CCNS(=O)(=O)c1ccc(OCC(=O)OCC)cc1	-4.54%
O=C(NCC1CCCO1)c1coc2nc3ccccc3nc12 (centres unmarked)	-13.9%
COc1ccc(-c2noc(N3CCC(C(=O)Nc4ccccc4Cl)CC3)n2)cc1	10.8%
O=S(=O)(NCc1ccco1)c1cccc(S(=O)(=O)N2CCCCC2)c1	-32.2%
CCc1ccccc1N(C(=O)c1snc(C(N)=O)c1N)C(C(=O)NCC1CCCO1)c1c[nH]c2ccccc12 (centres unmarked)	1.69%
